# From the supplement of paper PMC8728848
# Some of the results follow.
# B1: MD-2 (Homo sapiens) (protein)
# chain: MLPFLFFSTLFSSIFTEAQKQYWVCNSSDASISYTYCDKMQYPISINVNPCIELKGSKGLLHIFYIPRRDLKQLYFNLYITVNTMNLPKRKEVICRGSDDDYSFCRALKGETVNTTISFSFKGIKFSKGKYKCVVEAISGSPEEMLFCLEFVILHQPNSN
# Assays:
# Assay in all cases: glycan array binding signal (z-score within array); higher = stronger binding
# Conditions in all cases: glycan notation: IUPAC condensed, linker removed
# [1] = biological target: Neu5Ac(a2-3)Gal(b1-3)[Fuc(a1-4)]GlcNAc(b1-3)Gal(b1-4)[Fuc(a1-3)]GlcNAc
# Summary of the method: (§1)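 Negative Z-scores can be read as non-binding. The Z-score is calculated within each array and then averaged across arrays of one protein sequence at different concentrations or buffers and across linkers. Arrays, 3228 in all, were curated from the Consortium for Functional Glycomics database and kept only where the protein sequence was available.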
# [2] = biological target: Neu5Ac(a2-3)Gal(b1-3)[Neu5Ac(a2-3)Gal(b1-4)]GlcNAc
# Summary of the method: as §1
# [3] = biological target: Neu5Ac(a2-3)Gal(b1-3)[Neu5Ac(a2-6)]GalNAc
# Summary of the method: as §1
# [4] = biological target: Neu5Ac(a2-3)Gal(b1-4)Glc
# Summary of the method: as §1
# [5] = biological target: Neu5Ac(a2-3)Gal(b1-4)GlcNAc
# Summary of the method: as §1
# [6] = biological target: Neu5Ac(a2-3)Gal(b1-4)GlcNAc(b1-2)Man(a1-3)[GlcNAc(b1-2)Man(b1-4)GlcNAc(b1-2)Man(a1-6)]Man(b1-4)GlcNAc(b1-4)GlcNAc
# Summary of the method: as §1
# [7] = biological target: Neu5Ac(a2-3)Gal(b1-4)GlcNAc(b1-2)Man(a1-3)[Neu5Ac(a2-6)Gal(b1-4)GlcNAc(b1-2)Man(a1-6)]Man(b1-4)GlcNAc(b1-4)GlcNAc
# Summary of the method: as §1
# [8] = biological target: Neu5Ac(a2-3)Gal(b1-4)GlcNAc(b1-3)Gal(b1-3)GlcNAc
# Summary of the method: as §1
# [9] = biological target: Neu5Ac(a2-3)Gal(b1-4)GlcNAc(b1-3)Gal(b1-4)GlcNAc
# Summary of the method: as §1
# [10] = biological target: Neu5Ac(a2-3)Gal(b1-4)GlcNAc(b1-3)Gal(b1-4)GlcNAc(b1-3)Gal(b1-4)GlcNAc
# Summary of the method: as §1
# [11] = biological target: Neu5Ac(a2-3)Gal(b1-4)GlcNAc(b1-3)Gal(b1-4)[Fuc(a1-3)]GlcNAc
# Summary of the method: as §1
# [12] = biological target: Neu5Ac(a2-3)Gal(b1-4)GlcNAc(b1-6)[Gal(b1-3)]GalNAc
# Summary of the method: as §1
# [13] = biological target: Neu5Ac(a2-3)Gal(b1-4)GlcNAc(b1-6)[Neu5Ac(a2-3)Gal(b1-3)]GalNAc
# Summary of the method: as §1
# [14] = biological target: Neu5Ac(a2-3)Gal(b1-4)GlcNAc6S
# Summary of the method: as §1
# [15] = biological target: Neu5Ac(a2-3)Gal(b1-4)[Fuc(a1-3)]GlcNAc
# Summary of the method: as §1
# [16] = biological target: Neu5Ac(a2-3)Gal(b1-4)[Fuc(a1-3)]GlcNAc(b1-3)Gal
# Summary of the method: as §1
# [17] = biological target: Neu5Ac(a2-3)Gal(b1-4)[Fuc(a1-3)]GlcNAc(b1-3)Gal(b1-4)GlcNAc
# Summary of the method: as §1
# [18] = biological target: Neu5Ac(a2-3)Gal(b1-4)[Fuc(a1-3)]GlcNAc(b1-3)Gal(b1-4)[Fuc(a1-3)]GlcNAc(b1-3)Gal(b1-4)[Fuc(a1-3)]GlcNAc
# Summary of the method: as §1
# [19] = biological target: Neu5Ac(a2-3)Gal(b1-4)[Fuc(a1-3)]GlcNAc(b1-6)[Gal(b1-3)]GalNAc
# Summary of the method: as §1
# [20] = biological target: Neu5Ac(a2-3)Gal(b1-4)[Fuc(a1-3)]GlcNAc6S
# Summary of the method: as §1
# [21] = biological target: Neu5Ac(a2-3)Gal6S(b1-4)GlcNAc
# Summary of the method: as §1
# [22] = biological target: Neu5Ac(a2-3)Gal6S(b1-4)[Fuc(a1-3)]GlcNAc
# Summary of the method: as §1
# [23] = biological target: Neu5Ac(a2-3)GalNAc
# Summary of the method: as §1
# [24] = biological target: Neu5Ac(a2-3)GalNAc(b1-4)GlcNAc
# Summary of the method: as §1
# [25] = biological target: Neu5Ac(a2-3)[GalNAc(b1-4)]Gal(b1-4)Glc
# Summary of the method: as §1
# [26] = biological target: Neu5Ac(a2-3)[GalNAc(b1-4)]Gal(b1-4)GlcNAc
# Summary of the method: as §1
# [27] = biological target: Neu5Ac(a2-3)[Neu5Ac(a2-6)]GalNAc
# Summary of the method: as §1
# [28] = biological target: Neu5Ac(a2-6)Gal
# Summary of the method: as §1
# [29] = biological target: Neu5Ac(a2-6)Gal(b1-4)Glc
# Summary of the method: as §1
# [30] = biological target: Neu5Ac(a2-6)Gal(b1-4)GlcNAc
# Summary of the method: as §1
# [31] = biological target: Neu5Ac(a2-6)Gal(b1-4)GlcNAc(b1-2)Man(a1-3)[Gal(b1-4)GlcNAc(b1-2)Man(a1-6)]Man(b1-4)GlcNAc(b1-4)GlcNAc
# Summary of the method: as §1
# [32] = biological target: Neu5Ac(a2-6)Gal(b1-4)GlcNAc(b1-2)Man(a1-3)[GlcNAc(b1-2)Man(a1-6)]Man(b1-4)GlcNAc(b1-4)GlcNAc
# Summary of the method: as §1
# [33] = biological target: Neu5Ac(a2-6)Gal(b1-4)GlcNAc(b1-2)Man(a1-3)[GlcNAc(b1-2)Man(b1-4)GlcNAc(b1-2)Man(a1-6)]Man(b1-4)GlcNAc(b1-4)GlcNAc
# Summary of the method: as §1
# [34] = biological target: Neu5Ac(a2-6)Gal(b1-4)GlcNAc(b1-2)Man(a1-3)[Neu5Ac(a2-6)Gal(b1-4)GlcNAc(b1-2)Man(a1-6)]Man(b1-4)GlcNAc(b1-4)GlcNAc
# Summary of the method: as §1
# [35] = biological target: Neu5Ac(a2-6)Gal(b1-4)GlcNAc(b1-2)Man(a1-6)[Gal(b1-4)GlcNAc(b1-2)Man(a1-3)]Man(b1-4)GlcNAc(b1-4)GlcNAc
# Summary of the method: as §1
# [36] = biological target: Neu5Ac(a2-6)Gal(b1-4)GlcNAc(b1-2)Man(a1-6)[GlcNAc(b1-2)Man(a1-3)]Man(b1-4)GlcNAc(b1-4)GlcNAc
# Summary of the method: as §1
# [37] = biological target: Neu5Ac(a2-6)Gal(b1-4)GlcNAc(b1-3)Gal(b1-4)GlcNAc
# Summary of the method: as §1
# [38] = biological target: Neu5Ac(a2-6)Gal(b1-4)GlcNAc(b1-3)Gal(b1-4)[Fuc(a1-3)]GlcNAc(b1-3)Gal(b1-4)[Fuc(a1-3)]GlcNAc
# Summary of the method: as §1
# [39] = biological target: Neu5Ac(a2-6)Gal(b1-4)GlcNAc6S
# Summary of the method: as §1
# [40] = biological target: Neu5Ac(a2-6)GalNAc
# Summary of the method: as §1
# [41] = biological target: Neu5Ac(a2-6)GalNAc(b1-4)GlcNAc
# Summary of the method: as §1
# [42] = biological target: Neu5Ac(a2-8)Neu5Ac
# Summary of the method: as §1
# [43] = biological target: Neu5Ac(a2-8)Neu5Ac(a2-3)Gal(b1-4)Glc
# Summary of the method: as §1
# [44] = biological target: Neu5Ac(a2-8)Neu5Ac(a2-3)[GalNAc(b1-4)]Gal(b1-4)Glc
# Summary of the method: as §1
# [45] = biological target: Neu5Ac(a2-8)Neu5Ac(a2-8)Neu5Ac
# Summary of the method: as §1
# [46] = biological target: Neu5Ac(a2-8)Neu5Ac(a2-8)Neu5Ac(a2-3)Gal(b1-4)Glc
# Summary of the method: as §1
# [47] = biological target: Neu5Ac(a2-8)Neu5Ac(a2-8)Neu5Ac(a2-3)[GalNAc(b1-4)]Gal(b1-4)Glc
# Summary of the method: as §1
# [48] = biological target: Neu5Ac(a2-8)Neu5Ac(a2-8)Neu5Ac(a2-8)Neu5Ac(a2-3)[GalNAc(b1-4)]Gal(b1-4)Glc
# Summary of the method: as §1
# [49] = biological target: Neu5Ac(b2-6)Gal(b1-4)GlcNAc
# Summary of the method: as §1
# [50] = biological target: Neu5Ac(b2-6)GalNAc
# Summary of the method: as §1
# [51] = biological target: Neu5Ac9Ac(a2-6)Gal(b1-4)GlcNAc
# Summary of the method: as §1
# [52] = biological target: Neu5Gc(a2-3)Gal(b1-3)GlcNAc
# Summary of the method: as §1
# [53] = biological target: Neu5Gc(a2-3)Gal(b1-3)[Fuc(a1-4)]GlcNAc
# Summary of the method: as §1
# [54] = biological target: Neu5Gc(a2-3)Gal(b1-4)Glc
# Summary of the method: as §1
# [55] = biological target: Neu5Gc(a2-3)Gal(b1-4)GlcNAc
# Summary of the method: as §1
# [56] = biological target: Neu5Gc(a2-3)Gal(b1-4)[Fuc(a1-3)]GlcNAc
# Summary of the method: as §1
# [57] = biological target: Neu5Gc(a2-6)Gal(b1-4)GlcNAc
# Summary of the method: as §1
# [58] = biological target: Neu5Gc(a2-6)GalNAc
# Summary of the method: as §1
# [59] = biological target: Neu5Gc(b2-6)Gal(b1-4)GlcNAc
# Summary of the method: as §1
binder,measurement,setting,value
B1,glycan array binding signal (z-score),[1],-0.308
same,glycan array binding signal (z-score),[2],-0.289
same,glycan array binding signal (z-score),[3],-0.18
same,glycan array binding signal (z-score),[4],-0.127
same,glycan array binding signal (z-score),[5],-0.297
same,glycan array binding signal (z-score),[6],-0.284
same,glycan array binding signal (z-score),[7],-0.394
same,glycan array binding signal (z-score),[8],-0.277
same,glycan array binding signal (z-score),[9],-0.277
same,glycan array binding signal (z-score),[10],-0.321
same,glycan array binding signal (z-score),[11],-0.162
same,glycan array binding signal (z-score),[12],-0.326
same,glycan array binding signal (z-score),[13],-0.253
same,glycan array binding signal (z-score),[14],-0.158
same,glycan array binding signal (z-score),[15],-0.34
same,glycan array binding signal (z-score),[16],-0.504
same,glycan array binding signal (z-score),[17],-0.316
same,glycan array binding signal (z-score),[18],-0.425
same,glycan array binding signal (z-score),[19],-0.243
same,glycan array binding signal (z-score),[20],-0.072
same,glycan array binding signal (z-score),[21],0.033
same,glycan array binding signal (z-score),[22],-0.201
same,glycan array binding signal (z-score),[23],-0.323
same,glycan array binding signal (z-score),[24],-0.402
same,glycan array binding signal (z-score),[25],-0.412
same,glycan array binding signal (z-score),[26],-0.227
same,glycan array binding signal (z-score),[27],-0.41
same,glycan array binding signal (z-score),[28],-0.384
same,glycan array binding signal (z-score),[29],-0.165
same,glycan array binding signal (z-score),[30],-0.261
same,glycan array binding signal (z-score),[31],-0.341
same,glycan array binding signal (z-score),[32],-0.318
same,glycan array binding signal (z-score),[33],-0.331
same,glycan array binding signal (z-score),[34],-0.321
same,glycan array binding signal (z-score),[35],-0.413
same,glycan array binding signal (z-score),[36],-0.338
same,glycan array binding signal (z-score),[37],-0.15
same,glycan array binding signal (z-score),[38],-0.175
same,glycan array binding signal (z-score),[39],-0.067
same,glycan array binding signal (z-score),[40],-0.355
same,glycan array binding signal (z-score),[41],-0.25
same,glycan array binding signal (z-score),[42],0.136
same,glycan array binding signal (z-score),[43],-0.305
same,glycan array binding signal (z-score),[44],-0.35
same,glycan array binding signal (z-score),[45],-0.091
same,glycan array binding signal (z-score),[46],-0.369
same,glycan array binding signal (z-score),[47],-0.18
same,glycan array binding signal (z-score),[48],-0.309
same,glycan array binding signal (z-score),[49],-0.288
same,glycan array binding signal (z-score),[50],-0.296
same,glycan array binding signal (z-score),[51],-0.419
same,glycan array binding signal (z-score),[52],-0.324
same,glycan array binding signal (z-score),[53],-0.393
same,glycan array binding signal (z-score),[54],-0.167
same,glycan array binding signal (z-score),[55],-0.291
same,glycan array binding signal (z-score),[56],-0.264
same,glycan array binding signal (z-score),[57],-0.388
same,glycan array binding signal (z-score),[58],-0.345
same,glycan array binding signal (z-score),[59],-0.381
